115 sequences from the BET-seq Pho4 binding data (Le et al. 2018) can be followed below.

This is one part of the list. The energies were worked out here from pooled read counts, against the library average; single values are noisy.

The target in the assay is T1, Pho4 (S. cerevisiae) (UniProt P07270).
T1 sequence: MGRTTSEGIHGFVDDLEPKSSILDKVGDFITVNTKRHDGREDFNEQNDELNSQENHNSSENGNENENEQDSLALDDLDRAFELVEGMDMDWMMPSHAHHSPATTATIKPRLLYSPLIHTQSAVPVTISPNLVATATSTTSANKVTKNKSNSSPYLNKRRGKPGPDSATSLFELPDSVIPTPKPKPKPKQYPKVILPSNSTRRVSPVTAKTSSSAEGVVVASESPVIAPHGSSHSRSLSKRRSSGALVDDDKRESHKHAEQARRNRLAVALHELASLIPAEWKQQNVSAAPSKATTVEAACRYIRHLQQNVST
Kind of assay: relative binding free energy (BET-seq); higher = weaker binding. The conditions noted are these: reference: library average.
As to TGAGTCACGTGATGAA, the “relative binding free energy” value stood at 0.33 kcal/mol.

Take GATTGCACGTGTGCGG: the “relative binding free energy” value came to 0.18 kcal/mol. Next, AGAATCACGTGGTGTT: 0.11 kcal/mol; CATTGCACGTGGGCTT: -0.06 kcal/mol; GGATTCACGTGGATAA: 0.41 kcal/mol. As for GTACGCACGTGGTAGT, the figure is -0.17 kcal/mol. Next, TGTGCCACGTGAAGAT: 0.22 kcal/mol; GTAAGCACGTGGGCAA: -0.02 kcal/mol; GTGAGCACGTGTACTG: -0.02 kcal/mol.

On to GGTGTCACGTGAGCCT, for which the “relative binding free energy” value stood at 0.24 kcal/mol. As for ATAATCACGTGGCGGG, the figure is 0.06 kcal/mol; as for GGGATCACGTGTTTAG, 0.24 kcal/mol; as for ATAGGCACGTGATGTG, -0.08 kcal/mol. Regarding TGTAACACGTGGTGCG, the “relative binding free energy” value came to 0.02 kcal/mol. Next, GTGGGCACGTGAGTGA: 0.13 kcal/mol. As for TCGATCACGTGGTTTG, the figure is 0.18 kcal/mol; as for GCCTTCACGTGGTGGT, 0.23 kcal/mol. As for CTGTACACGTGTTTTG, the figure is -0.05 kcal/mol.

With TGGCTCACGTGTTCTT, the “relative binding free energy” value was 0.23 kcal/mol. As for GGGGGCACGTGAGGTA, the figure is 0.07 kcal/mol; as for GGAATCACGTGGAAGT, 0.32 kcal/mol; as for GTTGACACGTGAGAAT, 0.16 kcal/mol.

Regarding GTATGCACGTGTCTAT, the “relative binding free energy” value came out at 0.05 kcal/mol. Next, TTTGGCACGTGCAGGA: -0.19 kcal/mol; AGTGTCACGTGATTTT: 0.39 kcal/mol.

Regarding ATTTGCACGTGTGTGG, the “relative binding free energy” value was 0.07 kcal/mol. As for TTGCGCACGTGGGATT, the figure is -0.13 kcal/mol; as for TTTCGCACGTGAATTT, 0.21 kcal/mol. As for TAAATCACGTGTGGTG, the figure is 0.18 kcal/mol; as for GTATACACGTGGATGA, 0.13 kcal/mol.

For GTAATCACGTGTGTAG, the “relative binding free energy” value came out at 0.21 kcal/mol. As for TGAAGCACGTGATGGA, the figure is -0.07 kcal/mol. TGGTCCACGTGTATTT: the “relative binding free energy” value was 0.1 kcal/mol. Next, ACTTACACGTGGTTGT: 0.06 kcal/mol. For the sequence TTGTACACGTGTCTGT, the “relative binding free energy” value is 0.09 kcal/mol. Next, TAGATCACGTGAGGGC: 0.52 kcal/mol; AGTTGCACGTGTTAGC: 0 kcal/mol. Next, GGGCGCACGTGGTAGT: -0.05 kcal/mol; TCGGTCACGTGGTGGC: -0.03 kcal/mol; ATCGGCACGTGTGGGG: 0.01 kcal/mol. Regarding TTGAGCACGTGTCTGT, the “relative binding free energy” value is -0.2 kcal/mol. As for TGACGCACGTGCGTGT, the figure is -0.18 kcal/mol.

Turning to TCTGTCACGTGTTCTG, the “relative binding free energy” value is 0.04 kcal/mol. Next, TTTTTCACGTGGTCGA: 0.27 kcal/mol; TGTGTCACGTGTAATG: 0.26 kcal/mol; GTTGGCACGTGAAGTC: 0.14 kcal/mol. Next, TAATGCACGTGCTGGG: -0.05 kcal/mol; GGTAGCACGTGGTCAA: 0 kcal/mol; GGGTGCACGTGAGAGC: 0.22 kcal/mol. Next, TCATGCACGTGGTGCG: -0.15 kcal/mol; GAGTTCACGTGATTGT: 0.41 kcal/mol.

With GATGTCACGTGAGTTT, the “relative binding free energy” value came to 0.4 kcal/mol.

GCTGGCACGTGTGCGG: the “relative binding free energy” value is -0.22 kcal/mol. Next, TGATGCACGTGATATT: 0.14 kcal/mol.

Consider AAGGGCACGTGTTGAA, for which the “relative binding free energy” value was -0.14 kcal/mol. For GTTGCCACGTGTTAGG, the “relative binding free energy” value was 0.01 kcal/mol. As for CGGTTCACGTGGGTAT, the figure is 0.21 kcal/mol. Regarding TGGGACACGTGCTTGT, the “relative binding free energy” value came to 0.04 kcal/mol. Turning to GTGGTCACGTGATTCA, the “relative binding free energy” value turned out to be 0.27 kcal/mol. Take TATTTCACGTGGGAAT: the “relative binding free energy” value amounted to 0.21 kcal/mol. As for GGCATCACGTGTGTAG, the figure is 0.24 kcal/mol; as for AGTAACACGTGGTGTT, -0.12 kcal/mol. For the sequence TGGTACACGTGTTTTG, the “relative binding free energy” value amounted to 0.05 kcal/mol. Next, TAGCACACGTGTGGTT: -0.04 kcal/mol; TGTTTCACGTGATCAG: 0.29 kcal/mol. For CTGTGCACGTGCGGTC, the “relative binding free energy” value is 0.03 kcal/mol. As for AGGAGCACGTGTAGTA, the figure is -0.13 kcal/mol. As for TCTTTCACGTGGGGGA, the figure is 0.24 kcal/mol. Next, TTCCGCACGTGGTAGG: -0.1 kcal/mol. For the sequence ATCGACACGTGGGTGA, the “relative binding free energy” value is -0.09 kcal/mol.

Consider GGAAACACGTGTTGAG, for which the “relative binding free energy” value was found to be 0.14 kcal/mol. Next, ATGAGCACGTGTTGGG: -0.02 kcal/mol; GTTGTCACGTGGAGAT: 0.08 kcal/mol.

Regarding AGTTGCACGTGGTAAA, the “relative binding free energy” value is -0.04 kcal/mol.

On to GAATTCACGTGTAATT, for which the “relative binding free energy” value amounted to 0.26 kcal/mol.

As for TGAGGCACGTGTGTAC, the “relative binding free energy” value is -0.01 kcal/mol. As for GTGGTCACGTGTCTGG, the figure is 0.15 kcal/mol. Next, TTAGACACGTGCTGTG: 0.01 kcal/mol; TCAGGCACGTGGTGGC: -0.12 kcal/mol; CGTCACACGTGGGTTG: -0.15 kcal/mol. As for TATAGCACGTGTTATT, the figure is -0.07 kcal/mol. Turning to GGTGGCACGTGCGTTA, the “relative binding free energy” value was 0.01 kcal/mol. As for AGAGGCACGTGTAGGA, the “relative binding free energy” value turned out to be 0.02 kcal/mol. As for GTAGACACGTGGGGGA, the figure is -0.02 kcal/mol; as for TGTAACACGTGGGATA, -0.11 kcal/mol; as for TAAATCACGTGGATTT, 0.14 kcal/mol. As for AGTTGCACGTGTCGTC, the figure is 0.05 kcal/mol; as for GGGAGCACGTGGTTGG, -0.06 kcal/mol; as for GGGTACACGTGAGGGC, 0.3 kcal/mol. Turning to GGGGGCACGTGGTGCG, the “relative binding free energy” value is -0.15 kcal/mol. Next, TGTGGCACGTGCGCGC: -0.32 kcal/mol; GTTCGCACGTGGGGTG: -0.14 kcal/mol. As for TGGGTCACGTGCCTTT, the figure is 0.19 kcal/mol; as for TGGACCACGTGAGGTA, 0.15 kcal/mol. As for TAAAGCACGTGGTCGG, the figure is -0.32 kcal/mol; as for TGTACCACGTGGGCTT, -0.14 kcal/mol.

As for GACTGCACGTGGAGGG, the “relative binding free energy” value was -0.14 kcal/mol. As for ATTGTCACGTGGGACT, the figure is -0.04 kcal/mol. Next, CGCGTCACGTGGATAG: 0.14 kcal/mol; TGTTTCACGTGGTAAG: 0.23 kcal/mol; TATATCACGTGTTGTG: 0.03 kcal/mol. Next, TAGAGCACGTGTTGGC: -0.11 kcal/mol; TATTGCACGTGTCTAA: 0.06 kcal/mol; TATGACACGTGTTAGG: 0.02 kcal/mol. As to GATGACACGTGGGTGC, the “relative binding free energy” value is -0.08 kcal/mol. On to AAGAGCACGTGTGTAA, for which the “relative binding free energy” value is -0.05 kcal/mol. Next, GTAGACACGTGTTGTG: -0.03 kcal/mol.

Consider TAAATCACGTGTGCTT, for which the “relative binding free energy” value was 0.07 kcal/mol. Take TGAAACACGTGTATAG: the “relative binding free energy” value was 0.06 kcal/mol. As for TTGCGCACGTGCAGGT, the figure is -0.24 kcal/mol. Next, CTAGGCACGTGGTGGG: -0.24 kcal/mol. Next, AGTGTCACGTGAGTGA: 0.22 kcal/mol; GTTAGCACGTGGGACA: -0.14 kcal/mol; CAGTGCACGTGTGGAT: 0.01 kcal/mol. On to ATGCGCACGTGTTTTG, for which the “relative binding free energy” value is -0.08 kcal/mol.
